# In PubChem BioAssay AID493208 (National Center for Advancing Translational Sciences (NCATS), 2011):
# Among all 44,000 compounds or so, about 340 (0.77%) were called active. About 5% were inconclusive and are not listed. Calls come from the whole dose curve; as a rule, active = well fitted inhibition curve with a large enough effect; inconclusive = small, poorly fitted or top-dose-only effect; inactive = flat fitted curve, though single readings scatter. Some of the results follow.
# Experiment: Acumen qHTS Assay for Inhibitors of the mTORC1 Signaling Pathway in MEF (Tsc2-/-, p53-/-) Cells: Sytravon; note: nearly all actives have a fitted effect of over 50% in size;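 for activity change, negative = inhibition: plate controls were DMSO for no effect and rapamycin for full effect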
# Settings: phospho-rpS6 immunofluorescence/PI, 24 h; series mostly up to 38.3 µM; activity change, negative = inhibition: at the top concentration
# In short: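 Readout is phospho-S6 Alexa 488 signal normalized to PI per well, reported as % active cells with thresholds set from rapamycin (7.5 nM) and DMSO controls. Cells: Tsc2-/-, p53-/- MEFs, 24 hrs compound at 37 C; PI cell number serves as viability.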
# Potency is the fitted concentration of half-maximal effect.
Compound,"activity change, negative = inhibition",Potency
O=S(=O)(Nc1ccc(-c2ccc(N3CCCCC3)nn2)cc1)c1ccc(OC(F)(F)F)cc1,inactive: -7.94%,–
CCCn1cc(S(=O)(=O)c2cccc(Cl)c2)c(=O)c2cc(F)c(N3CCOCC3)cc21,inactive: -11.5%,–
CCN(CC)C(=O)CSc1nnc2ccc3ccccc3n12,inactive: 4.52%,–
Cc1nn(-c2ccc(N3CCCCC3)nn2)c(C)c1CCC(=O)NCc1ccc(F)cc1,inactive: -5.17%,–
CCc1ccccc1NC(=O)CN1C(=O)CCn2nc(-c3cccn3C)cc21,inactive: 7.22%,–
Cc1cccc(NC(=O)CSC2=Nc3ccccc3C3=NC(CCC(=O)NCc4ccco4)C(=O)N23)c1 (stereo not given),inactive: -13.5%,–
COc1cc(OC)c(NC(=O)Cn2ncn3c(cc4cc(C)ccc43)c2=O)cc1Cl,inactive: -2.2%,–
COC(=O)c1sccc1S(=O)(=O)N(CC(=O)Nc1cccc(C)c1C)c1ccc(C)c(C)c1,inactive: -29.3%,–
COc1ccccc1CNC(=O)Cn1cc2c(n1)-c1c(oc(C(=O)N3CCOCC3)c1C)CC2,inactive: -6.05%,–
CC(C)CN(CCNC(=O)CCN1N=C(c2ccccc2)CCC1=O)CC(C)C,inactive: 7.06%,–
COc1ccc2c(C)c(CC(=O)NCc3ccccc3Cl)c(=O)oc2c1OC,inactive: 1.89%,–
Cc1ccc(-c2onc(C)c2C)cc1S(=O)(=O)Nc1ccccn1,inactive: -3.22%,–
CCc1ccccc1NC(=O)c1ccc2c(c1)CCCN2S(C)(=O)=O,inactive: -5.36%,–
CCSc1nc2ccccc2c(OCc2ccc(Cl)cc2)c1C(=O)OC,inactive: 8%,–
COc1ccc2c(c1)c1c(c(=O)n(CCc3ccccc3)c(=O)n1Cc1cccc(F)c1)n2C,inactive: -2.05%,–
CN(C)S(=O)(=O)N1CCC(n2c(C(F)(F)F)nc3cccnc32)CC1,inactive: 3.01%,–
COc1ccc(Cn2c(CO)cnc2SCc2ccc(C)cc2)cc1,inactive: -4.41%,–
CC(C)(C)OC(=O)N1CCC(c2c(C(=O)N3CCN(Cc4ccccc4)CC3)cnn2-c2cccc(Cl)c2)CC1,inactive: -0.362%,–
COc1ccc(CCNC(=O)CN(c2ccccc2)S(=O)(=O)N(C)C)cc1OC,inactive: 4.54%,–
CCc1cccc(C)c1NC(=O)CSc1nc2ccccc2nc1Cc1ccccc1,inactive: -0.122%,–
Cc1ccc(NC(=O)c2oc3ccc(S(=O)(=O)N4CCC5(CC4)OCCO5)cc3c2C)cc1Cl,inactive: -2.94%,–
CC(=O)N1CCC(N(CCCOC(C)C)C(=O)Nc2ccc(C)c(C)c2)CC1,inactive: 4.82%,–
COc1ccc(-c2nc3cc(NC(=O)COc4ccccc4C)ccc3o2)cc1,inactive: 2.07%,–
CCOC(=O)c1c(NC(=O)c2cc(-c3ccc(OC)c(OC)c3)on2)sc2c1CCCC2,inactive: -1.74%,–

Compound,"activity change, negative = inhibition",Potency
CCc1c(C)sc2c1CCN(Cc1ccc(C#N)cc1)C2c1ccccc1 (stereo not given),inactive: 12.5%,–
O=C(CN1C(=O)CCSc2ccc(S(=O)(=O)N3CCCC3)cc21)Nc1cccc(F)c1,inactive: 0.522%,–
COc1cc(C(c2c(C)[nH][nH]c2=O)c2c(C)[nH][nH]c2=O)ccc1OC(=O)c1ccccc1OC,inactive: 4.4%,–
COC(=O)CC1Oc2ccccc2-n2cc(-c3ccc(F)cc3)nc21 (stereo not given),inactive: -8.47%,–
CCOC(=O)C(C)NC(=O)c1c2c(nc3ccccc13)C(=O)N(C1CCCCC1)C2 (stereo not given),inactive: -6.73%,–
Cc1ccc(Cl)cc1-n1nnc(-c2nc(-c3ccc4c(c3)OCO4)no2)c1C,inactive: -3.85%,–
COc1ccc(Nc2nn3c(=O)c4cc5c(cc4nc3s2)OCO5)c(OC)c1,inactive: 2.03%,–
Cc1cccc(N(C)S(=O)(=O)c2cc(-c3cnc(C4CC4)o3)ccc2C)c1,inactive: 0%,–
O=C(CCNS(=O)(=O)c1ccc2c(c1)CCN2C(=O)C1CC1)N1CCN(c2cccc(Cl)c2)CC1,inactive: -22.8%,–
CCC(=O)N1c2ccc(S(=O)(=O)CCC(=O)Nc3ccc(OC)cc3OC)cc2CC1C (stereo not given),inactive: -3.43%,–
CCc1ccc(C2c3c(-c4ccccc4O)n[nH]c3C(=O)N2Cc2cccnc2)cc1 (stereo not given),inactive: -4.98%,–
CCC(=O)N1CCc2cc(CNS(=O)(=O)c3ccc(CC(C)C)cc3)ccc21,inactive: 4.57%,–
CCN1CCN(c2ncc3c(n2)CCN(Cc2ccccc2C)C3)CC1,inactive: -12.2%,–
COc1ccc(-c2nc(CS(=O)CC(=O)NCCc3ccc(Cl)cc3)c(C)o2)cc1OC (stereo not given),inactive: -0.721%,–
CCc1ccc(-n2nc(CO)c(C(=O)NC)n2)cc1,inactive: 3.66%,–
CC(C)CCNC(=O)C1CCN(C(=O)c2cc3sccc3n2Cc2ccc(Cl)cc2)CC1,inactive: -9.71%,–
Cc1ccc(CS(=O)(=O)c2ncc(Cl)c(C(=O)Nc3nnc(C(C)C)s3)n2)cc1,–,active: 14.7 µM
Cc1cccc(N2CCN(C(=O)Cn3c(-c4cccs4)cc4ccccc43)CC2)c1C,inactive: 0.432%,–
Cc1ccc2c(CC(=O)Nc3ccc(S(=O)(=O)N4CCCCC4)cc3)coc2c1C,inactive: -10.6%,–
COc1cc(CN(C(=O)c2ccccc2F)C2CCS(=O)(=O)C2)cc(OC)c1OC (stereo not given),inactive: 0.927%,–
CCCS(=O)(=O)N1CC(=O)N(c2ccc(C)c(Cl)c2)C(C)(C(=O)NC2CCCCCC2)C1 (stereo not given),inactive: -4.73%,–
CCCCNC(=O)CCCN1C(=O)c2ccccc2Sc2ncccc21,inactive: -2.7%,–
Oc1c(C(c2ccc(F)cc2)N2CCN(Cc3ccccc3)CC2)sc2nc(-c3ccco3)nn12 (stereo not given),inactive: 0.278%,–
CN1C(=O)C2(c3ccccc31)N(c1cccc(C(F)(F)F)c1)C(=O)CS2(=O)=O (stereo not given),inactive: -6.73%,–

Compound,"activity change, negative = inhibition",Potency
O=C(NCc1ccc(F)cc1)C(=O)NCC(c1ccc2c(c1)OCO2)N1CCOCC1 (stereo not given),inactive: -9.7%,–
COc1ccc(NC(=O)C2CCCN(S(=O)(=O)c3c(C)[nH]c(=O)[nH]c3=O)C2)c(OC)c1 (stereo not given),inactive: -7.05%,–
COc1ccc(C(=O)N(Cc2ccco2)Cc2ccc(C)o2)cc1,inactive: 3.82%,–
Cc1cccc(-c2nc3nc(C)cc(NC(C)c4ccccc4)n3n2)c1 (stereo not given),inactive: 0.544%,–
COc1cc(NS(=O)(=O)c2ccc(NC(=O)c3ccc(Cl)cc3Cl)cc2)nc(OC)n1,inactive: -3.36%,–
Cc1ccc2nc(-c3ccc(NC(=O)COc4ccc(Br)cc4Br)cc3)sc2c1,inactive: -7.25%,–
COCCCNC(=O)c1cnc2sc(N3CCCCC3)nn2c1=O,inactive: -6.9%,–
CNC(=O)c1c(NC(=O)/C=C/c2ccccc2)sc2c1CCC2,inactive: 1.17%,–
CCOc1ccc(NC(=O)Cn2nnc(-c3nc(-c4ccncc4)no3)c2N)cc1,inactive: -1.4%,–
CCc1ccc(NCc2cc3cc4c(cc3n(CC(=O)Nc3ccccc3C)c2=O)OCCO4)cc1,inactive: -3.43%,–
Cc1ccccc1NC(=O)/C(C#N)=C/c1ccc(Cl)cc1Cl,inactive: -3.47%,–
CCOC(=O)c1ccc(NC(=O)CC(=O)Nc2ccc3nc4n(c(=O)c3c2)CCCCC4)cc1,inactive: -2.59%,–
COc1ccc(-c2nc3sc(CCNS(=O)(=O)c4ccccc4)c(C)n3n2)cc1,inactive: 1.36%,–
CCCOc1ccc(C(=O)Nc2cc3c(cc2N2CCCCC2)n(C)c(=O)n3C)cc1,inactive: 0.771%,–
COc1ccc(Br)cc1CNC(=O)CN1C(=O)c2cccnc2Oc2ccc(C)cc21,inactive: -20.7%,–
Cc1ccc2oc(C(=O)Nc3ccc(S(=O)(=O)Nc4nccc(C)n4)cc3)cc(=O)c2c1,inactive: 3.08%,–
CC(C)c1ccc(N(CC(=O)O)S(=O)(=O)c2ccc3[nH]c(=O)c(=O)[nH]c3c2)cc1,inactive: -1.13%,–
Cc1ccc2ncc3c(-c4ccc(F)cc4)nn(CC(=O)Nc4ccccc4C)c3c2c1,inactive: -0.415%,–
Cc1ccc(S(=O)(=O)Cc2nc(-c3ccc(C(=O)NCCCOC(C)C)cc3)oc2C)cc1,inactive: -0.342%,–
CCOc1ccc(C(=O)Nc2cc3c(cc2N2CCCC2)n(C)c(=O)c(=O)n3C)cc1OCC,inactive: -15%,–
CSc1ncc2c(n1)-c1ccccc1N(Cc1ccccc1)S2(=O)=O,inactive: 1.07%,–
Cc1ccc2[nH]c3c(=O)n(CC(=O)Nc4ccc(Br)cc4C)ncc3c2c1,inactive: 1.5%,–
Fc1ccc(Nc2nc3ccccc3n3cnnc23)c(F)c1,inactive: -1.75%,–
COc1ccc(Oc2nc3c(c(=O)n(Cc4ccc(Br)cc4)c(=O)n3C)n2C)cc1,inactive: 2.54%,–

Compound,"activity change, negative = inhibition",Potency
COc1cccc(C(=O)N(Cc2nc(-c3ccc(Cl)cc3)no2)C(C)C)c1OC,inactive: 1.43%,–
COc1ccc(NC(=O)c2nc(-c3ccc(C)cc3)n3c2CCCCC3)cc1,inactive: -0.801%,–
CCSc1nc2ccccc2c(OCc2ccccc2Cl)c1C(=O)OC,inactive: 5.91%,–
O=C(c1ccc(F)cc1)n1nc(-c2cccnc2)nc1NCc1ccccc1,inactive: 1.41%,–
COc1ccc(-n2ccnc(NCCc3ccccc3)c2=O)cc1OC,inactive: -0.174%,–
CC(C)(C)c1ccc(C(=O)Nc2c(C(=O)c3ccc(F)cc3)oc3ccccc23)cc1,inactive: 13.4%,–
Cc1nc2nc(CNC(=O)c3cccc(F)c3)nn2c(C)c1CCC(=O)Nc1cccc(Cl)c1,inactive: -6.86%,–
Cc1nn(C(C)C(=O)Nc2ccccc2C(F)(F)F)c(=O)c2c1sc1ccccc12 (stereo not given),inactive: -6.07%,–
COc1ccccc1CNC(=O)COCc1cc(-c2cccs2)on1,inactive: 2.28%,–
Cc1ccc(N(CC(C)C)S(=O)(=O)c2nnc(NC(=O)C(C)C)s2)cc1,inactive: -0.369%,–
Cc1ccc2oc(-c3ccc(Cl)c(NC(=O)c4cc5ccccc5o4)c3)nc2c1,inactive: 1.65%,–
Cc1ccc(CNC(=O)c2cnc3c(-c4ccc(F)cc4)c(C)nn3c2C)o1,inactive: -4.41%,–
COc1ccc(Cl)cc1NC(=O)c1cnc2sc(N3CCOCC3)nn2c1=O,inactive: -4.26%,–
CN1CCN(CCNC(=O)c2cnn(-c3ccc(Cl)cc3)c2C2CCN(C(=O)OC(C)(C)C)CC2)CC1,inactive: -2.73%,–
CCN(C(=O)C1CCN(S(=O)(=O)c2c(C)noc2/C=C/c2ccc(C)cc2)CC1)c1cccc(C)c1,inactive: 3.32%,–
CCC(=O)N1CCc2cc(S(=O)(=O)NC(Cc3ccccc3)C(=O)O)ccc21 (stereo not given),inactive: -2.45%,–
COc1ccc(NC(=O)CSc2nc3ccccc3c(=O)n2CCC(=O)NC2CCCCC2)c(OC)c1,inactive: -4.23%,–
O=C(CCCCCn1c(=O)c2sccc2n(Cc2ccccc2Cl)c1=O)NCc1ccc2c(c1)OCO2,inactive: -10.1%,–
Cc1ccc(S(=O)(=O)Nc2ccc3nc(-c4cccc(Cl)c4)oc3c2)cc1,inactive: -8.95%,–
COc1ccc(CCNC(=O)C(C)n2nc(C)c3sc4ccccc4c3c2=O)c(OC)c1 (stereo not given),–,active: 2.93 µM
COc1cccc(-c2cn3c(n2)sc2cc(C(=O)NC4CCCCC4)ccc23)c1,inactive: 2.48%,–
CCN(CCCNC(=O)c1cc2c(=O)n(C)c3ccccc3c2s1)c1ccccc1,inactive: 2.79%,–
CCc1ccccc1Nc1nn2c(=O)c3ccc(C(=O)NC(C)C)cc3nc2s1,inactive: -11.3%,–
